In all, about 340,000 compounds went through this assay and about 6,900 (2%) were called active. Cut-off read from the data, not from the text of the source: active = inhibition above about 30%; inactive = below that, where a call was filed. The entries are a selection whose mix differs from that of the whole data set. The source gives no active or inactive call for entries shown without one.

Chain of UniProt P14416 (P14416 whole entry, looked up): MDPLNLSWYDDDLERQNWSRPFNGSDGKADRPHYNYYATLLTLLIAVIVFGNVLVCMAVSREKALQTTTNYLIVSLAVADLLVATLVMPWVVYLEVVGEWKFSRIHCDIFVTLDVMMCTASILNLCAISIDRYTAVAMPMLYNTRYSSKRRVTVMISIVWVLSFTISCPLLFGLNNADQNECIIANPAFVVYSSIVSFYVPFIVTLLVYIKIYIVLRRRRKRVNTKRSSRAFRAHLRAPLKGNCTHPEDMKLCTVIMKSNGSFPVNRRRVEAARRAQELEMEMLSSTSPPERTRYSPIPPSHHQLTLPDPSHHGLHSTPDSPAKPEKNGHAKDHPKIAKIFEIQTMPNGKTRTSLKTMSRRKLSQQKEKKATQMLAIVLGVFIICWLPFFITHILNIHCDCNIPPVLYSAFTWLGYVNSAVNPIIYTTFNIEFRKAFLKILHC

The target of the test is D(2) dopamine receptor (Homo sapiens) (UniProt P14416). In words: HTS Assay for Allosteric Antagonists of the Human D2 Dopamine Receptor: Primary Screen for Antagonists. Note: 0% is about no effect. The note with it: HEK293 TREx D2 cells, calcium flux, dopamine EC80; at 10 µM; stronger effect = higher value. In short, it runs like this:
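Dopamine at EC80 is the agonist stimulus; test compounds precede it by 180 s. Calcium flux read kinetically in a force-coupled, inducible HEK293 T-REx D2 cell line.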
As to `Cc1ccc(C)c(CN2C(=O)c3ccccc3S(=O)c3ccc(C(=O)N(C)Cc4ccccc4)cc32)c1` (centres undefined), the inhibition was -1.19%. As for `Cc1ccc(-n2ncc(C(=O)N3CCC(c4ccccc4)C3)c2C2CCN(C(=O)OC(C)(C)C)CC2)cc1` (centres undefined), the figure is 6.75%; as for `CCCCOc1ccc(CNC(=O)c2ccc(NC(=O)N3CCSc4ncccc43)cc2)cc1`, 3.88%; as for `CCOc1ccc2nc(N3CCC(C(=O)Nc4c(C)cccc4C)CC3)sc2c1`, -0.182%. With `Cc1ccc(S(=O)(=O)Nc2cc3c(cc2Cl)n(C)c(=O)c(=O)n3C)cc1` the figure was -1.99%; with `Cc1ccc(C)c(N2CCN(C(=O)c3cc4c(=O)n(Cc5cccs5)ccc4nc3C)CC2)c1`, 9.21%. As for `CCOC(=O)c1c(SCC(=O)Nc2nc(C)cs2)nc(=O)[nH]c1C`, the figure is active: 32%; as for `Cc1coc2cc3oc(=O)c(CC(=O)NCc4ccccc4)c(C)c3cc12`, -19.7%; as for `CC(=O)N1CCCc2cc(S(=O)(=O)N3CCCC(C(=O)Nc4ccc(C)c(C)c4)C3)ccc21` (centres undefined), 4.82%.

Take `CCOc1ccccc1NC(=O)c1cc(S(=O)(=O)NC2CCCC2)ccc1F`: the inhibition is -11.5%. In the case of `COc1ccccc1NC(=O)Cn1c(=O)n(Cc2cccs2)c(=O)c2cccnc21`, the inhibition is -7.43%. Regarding `O=C(Cn1cc(SCc2ccccc2F)c2ccccc21)N1CCCCCC1`, the inhibition was 10.5%. As for `CCN(CC)c1ccc2cc(-c3nc(-c4ccc(Cl)cc4Cl)cs3)c(=O)oc2c1`, the figure is -4.48%; as for `O=C(CCc1nc(-c2ccccc2)no1)Nc1cccnc1`, active: 57.9%. As for `CCOC(=O)c1ccc(Nc2nc3nonc3nc2Nc2cccc(C)c2C)cc1`, the figure is -6.24%. As for `Cc1nc(-c2ccccc2)sc1-c1ccc(SCC(=O)NCc2ccccc2)nn1`, the figure is 10.2%; as for `CCCCCn1c(=O)[nH]c2cc(C(=O)N3CCN(c4cc(Cl)ccc4C)CC3)ccc2c1=O`, 0.498%; as for `CCOc1ccc(CCn2c3c(c(=O)[nH]c2=O)C(NC(=O)c2ccccc2)(C(F)(F)F)C(=O)N3)cc1OCC` (centres undefined), 8.89%. In the case of `CCOC(=O)c1c(S(=O)(=O)NCC(=O)Nc2cc(C)ccc2OC)c(C)n(C)c1C`, the inhibition was found to be 3.07%. As for `Cc1ccccc1C(=O)OCc1cc(=O)n2nc(C3CC3)sc2n1`, the figure is -0.136%; as for `COc1ccc(NC(=O)CSc2nc3ccccc3nc2Cc2ccc(C)cc2)cc1Cl`, -20.3%; as for `CCOc1ccc(C(=O)c2cn(CC(=O)Nc3ccc4c(c3)OCCO4)c3ccc(OC)cc3c2=O)cc1`, 11.5%. As for `CCCc1nn2c(=O)cc(COC(=O)c3cccs3)nc2s1`, the figure is 4.82%; as for `Cc1ccc(CNC(=O)C(=O)NCC(c2cccnc2)N2CCN(c3ccc(F)cc3)CC2)cc1` (centres undefined), -23.9%. As for `O=C(NCc1ccccc1)c1cc2sccc2n1Cc1ccc(F)cc1`, the figure is 14.2%. Consider `Cn1c(=O)c2c(nc(Oc3ccc(F)cc3)n2Cc2ccc(F)cc2)n(C)c1=O`, for which the inhibition was -9.6%.

With `COc1ccccc1NC(=O)c1sc2nc(C)c(C(=O)Nc3ccc(C)cc3C)c(-c3ccc(Br)cc3)c2c1N`, the inhibition stood at 0.0728%. `Cc1ccccc1CNC(=O)Cn1ccc2cc(S(=O)(=O)N3CCCCC3)ccc21`: the inhibition came out at 6.03%. For `CC(=O)c1ccc(NC(=O)c2ccc3c(c2)nnn3C2CCCC2)cc1`, the inhibition is 9.55%. With `CCOc1ccc(C(=O)CSc2nc3cc(C(=O)NC4CCCC4)ccc3c(=O)n2CC2CCCO2)cc1` (centres undefined) the figure was -8.82%; with `Cc1cccc(C(=O)Nc2ccc(C(=O)OCc3cc(=O)n4c5c(sc4n3)CCCC5)cc2)c1`, -1.33%; with `Cc1ccc(C)c(NC(=O)c2nc(S(C)(=O)=O)ncc2N(Cc2ccc(C(C)(C)C)cc2)Cc2ccco2)c1`, -19%.

In the case of `Cc1cccc(NC(=O)Cn2cc(C(=O)C3CCCCC3)c3ccccc32)c1C`, the inhibition is 9.69%. As for `COc1ccccc1C(=O)N1CCCCC1CCN1CCOCC1` (centres undefined), the figure is 0.8%. For `O=C(Nc1ccc(-c2nc3cc(NC(=O)c4ccccc4F)ccc3o2)cc1)c1ccccc1F`, the inhibition stood at 6.45%. As for `N#Cc1ccccc1NC(=O)CSc1ncn[nH]1`, the figure is 1.33%; as for `COc1cc2c(-c3ccccc3O)nc3c(c(C)nn3-c3ccccc3)c2cc1OC`, 1.37%; as for `COc1ccc(C(CNC(=O)C(C)(C)Oc2ccc(Cl)cc2)N2CCCCC2)cc1` (centres undefined), active: 86.1%. With `COc1cccc(CN2C(=O)c3ccccc3Sc3ccc(C(=O)NCCc4ccc(C)cc4)cc32)c1` the figure was 4.82%. With `COC(=O)C(CC(C)C)N1CCC(=O)c2ccccc2S1(=O)=O` (centres undefined) the figure was active: 51.6%; with `COc1ccccc1C(=O)NCc1nnnn1-c1ccc(C)c(C)c1`, 1.5%. `COc1ccc(-c2csc(-c3nc(-c4ccc(Br)s4)cs3)n2)cc1F`: the inhibition is -9.25%. Turning to `CCC1CCCCN1CCCNC(=O)c1c(O)nc2ccccn2c1=O` (centres undefined), the inhibition was 7.32%. With `CCCC1=Nc2cc(C(=O)NCCc3ccc(OCC)cc3)ccc2Sc2ccccc21`, the inhibition is -4.98%. As for `Cc1ccc(-c2nc3c(C)cccn3c2Nc2ccccc2C)s1`, the figure is 6.02%; as for `CC1CCCN(c2nc3c(S(=O)(=O)c4ccc(C(C)C)cc4)nnn3c3ccsc23)C1` (centres undefined), 1.66%. As to `CCOc1ccccc1N1CCN(CC(O)COCc2cccs2)CC1` (centres undefined), the inhibition is active: 67.7%.

For the molecule `COc1ccc(C2=C(C)C(=O)N(Cc3ccc(C(=O)Nc4cccc(F)c4)cc3)S2(=O)=O)cc1`, the inhibition is 5.63%. With `Cc1c(Cl)cccc1NC(=O)C1CCCN(c2nnc(-n3c(C)ccc3C)s2)C1` (centres undefined) the figure was -3.74%; with `CCN(CCCNC(=O)c1ccc(Sc2ccc(F)cc2)c(NC(C)=O)c1)c1ccccc1`, -14%; with `O=C(NCC(c1ccc2c(c1)OCO2)N1CCN(c2ccccc2)CC1)C(=O)Nc1cccc(F)c1` (centres undefined), 17.5%.

As to `Cc1ccc(CSC2=Nc3ccccc3C3=NC(CCC(=O)NCc4cccs4)C(=O)N23)cc1` (centres undefined), the inhibition was -12.6%. With `CCOc1ccc(CNc2ccc(N3CCN(Cc4ccccc4)CC3)cc2)cc1` the figure was active: 59%. With `CCN(CC)C(=O)CSc1nc2cc3c(cc2c(=O)n1CCCCCC(=O)NCc1ccc(OC)cc1)OCO3` the figure was 7.79%; with `COc1ccc(CNC(=O)Cn2c(=O)nc(-c3ccccc3F)c3cc(Cl)ccc32)cc1`, 6.27%. As for `O=C(CSc1cn(CC(=O)N2CCCCC2)c2ccccc12)NCc1ccc(F)cc1`, the figure is 1.86%; as for `CCCN(CCC)CCCNC(=O)C1CCN(c2nc3ccc(CC)cc3s2)CC1`, 1.65%. For the molecule `Cc1ccc(NC(=O)Nc2ccc3nc(N4CCN(C)CC4)cc(C)c3c2)cc1F`, the inhibition worked out at 8.9%. With `CCOc1cc(C2c3c(oc4cc(C)cc(C)c4c3=O)C(=O)N2CCO)ccc1O` (centres undefined), the inhibition is -3.01%.

Regarding `N#C/C(=C\c1cccc(F)c1)c1nc(-c2cc3c(ccc4ccccc43)oc2=O)cs1`, the inhibition was 10.6%. `CSc1cccc(NC(=O)C2CCCN(C(=O)c3cnn(-c4ccc(F)cc4)c3-n3cccc3)C2)c1` (centres undefined): the inhibition was -11.5%. As for `COc1ccc(S(=O)(=O)N(CC(=O)Nc2cc(C)ccc2OC)Cc2ccccc2)cc1`, the figure is -12.1%; as for `CCOc1ccccc1NS(=O)(=O)c1ccc2[nH]c3c(c2c1)CCCCC3`, -5.29%.

Take `Cc1ccc(Cn2c(=O)n(-c3ccc(C)cc3)c(=O)c3c2c2cc(C)ccc2n3C)cc1`: the inhibition was -0.213%. As for `CCOc1ccc(CCNC(=O)c2cc3c(=O)n(C)c4ccccc4c3n2C)cc1OCC`, the figure is 21.8%; as for `CCOc1ccccc1NC(=O)C(=O)NCCc1sc2nc(-c3ccc(OC)cc3)nn2c1C`, 7.64%; as for `CCOc1ccc(CNC(=O)c2ccccc2NC(=O)c2nsc3ccccc23)cc1`, -14.4%. Turning to `Cc1ccc(NC(=O)NCCOCCn2c(=O)oc3ccccc32)cc1C`, the inhibition was -6.62%. With `Cc1c(Cl)cccc1NC(=O)N1CCOc2ccccc21`, the inhibition is 18.1%. As for `CC(C)(C)C(=O)NC(=S)NNC(=O)c1ccc(-c2ccccc2)cc1`, the figure is active: 63.6%; as for `COC(=O)c1sccc1S(=O)(=O)N1CCN(c2ccc(C)cc2C)CC1`, -8.47%; as for `N#CC1=C(N)N2C(=C(C#N)C1c1cccc(Br)c1)Nc1ccccc12` (centres undefined), active: 39.4%. As for `Cc1ccc(OCC(=O)Nc2ccc3nc(SCC(=O)Nc4ccc(C)cc4C)sc3c2)cc1`, the figure is -0.582%.

In the case of `CCCNC(=O)c1ccccc1NC(=O)c1nsc2ccccc12`, the inhibition was 1.36%. As for `COc1cccc(NC(=O)CSc2ncc3c(n2)-c2ccc(Cl)cc2N(C)S3(=O)=O)c1`, the figure is -9.95%; as for `CC(C)(C)c1ccc(C(=O)NC2(C(F)(F)F)NC(=O)N(CCc3ccccc3)C2=O)cc1` (centres undefined), -5.54%; as for `CCc1ccc(OCC(=O)Nc2cc(-c3ccc(C)cc3)no2)cc1`, 7.06%. As for `COc1ccc(CNC(=O)CSc2ncc3c(n2)-c2cc(Cl)ccc2N(Cc2ccccc2)S3(=O)=O)cc1`, the figure is -7.21%. As for `Cc1ccc(Cl)cc1N1CCN(C(=O)Cn2c(-c3cccs3)cc3cc(F)ccc32)CC1`, the figure is 19.9%. Consider `CCOC(=O)Cn1c(=O)cc(C(F)(F)C(F)(F)F)c2c(C)nn(CC)c21`, for which the inhibition is -0.384%. With `O=C(Cc1ccccc1)NC1CCN(Cc2ccccc2)CC1` the figure was active: 36.4%. With `COc1cccc(-n2c(-c3ccccc3F)nc3c(cnn3-c3ccc(C)cc3)c2=O)c1` the figure was 12.4%; with `CCOC(=O)C(Cc1ccccc1)NC(=O)CCc1c(C)nc2nc(C)nn2c1C` (centres undefined), -1.05%; with `O=C(NC1CCCC1)c1ccc2c(=O)n(Cc3ccccc3)c(SCc3cccc([N+](=O)[O-])c3)nc2c1`, -6.77%. With `Cc1ccccc1NC(=O)CSc1nc(-c2ccccc2)cn1-c1ccccc1F` the figure was 14.7%. `Cc1ccccc1OCc1nc2c3cnn(-c4ccccc4F)c3ncn2n1`: the inhibition is 7.95%. As for `Cc1cc(C)c2nc(-c3ccccn3)cc(C(=O)NCc3cc(C)n(C)n3)c2c1`, the figure is active: 35.4%; as for `COc1ccc(C)cc1NS(=O)(=O)c1ccc2c3c(cccc13)C(=O)N2`, 2.33%.

For the molecule `COc1ccccc1Cn1ccn(Cc2ccc(C)cc2)c(=O)c1=O`, the inhibition is -0.693%.

For the molecule `CCCc1cc(N2CCN(c3cccc(C)c3C)CC2)n2cnnc2n1`, the inhibition is -7.08%.

For `Cc1cc(C)c(NC(=O)CSc2nccn2-c2cccc(Cl)c2)c(C)c1`, the inhibition was -2.05%. With `COc1ccc(CNC(=O)CCC2N=C3c4ccccc4N=C(SCc4ccccc4F)N3C2=O)cc1` (centres undefined) the figure was -12.9%. With `Cc1cc(OCCn2c(CCNC(=O)C3CCCCC3)nc3ccccc32)ccc1Cl`, the inhibition came to 8.16%.

As to `Cc1ccc(-c2nc(SCC(=O)NCC3CCCO3)c3c(=O)n(C)c(=O)n(C)c3n2)cc1` (centres undefined), the inhibition was found to be 2.36%.

The values above are taken from PubChem BioAssay AID485344 (National Center for Advancing Translational Sciences (NCATS), 2010).
